{"source": "paper PMC12040169", "about": "(PLOS Biology, 2025)", "note": "Some of the results follow.", "data": [{"system": "T1, C. trachomatis L2/434/Bu expressing GFP (CTL2-GFP)", "T1 construct": "L2/434/Bu GFP intracellular growth in HeLa cells", "design": "species or system HeLa; C. trachomatis total inclusion area by high-content imaging, normalised to DMSO", "settings": "total inclusion area; 28.5 h, 10 µM; inhibitor", "how_it_was_run": "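Bulk GFP and resorufin signals were read first. Wells were then fixed, stained with Hoechst and imaged to detect GFP inclusions and host nuclei. MICs followed the previously described calculation.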", "values": [{"smiles": "CC(=O)N1CCC[C@H]2NC(=O)CNC(=O)C3(C/C=C/C[C@H]21)CCN(C(=O)CCC(=O)O)CC3", "note": "[CBK292174]", "% of control remaining": 110.489}, {"smiles": "O=C(Nc1c(F)cc(F)cc1OC1CCNCC1)c1ccnc2ccccc12", "note": "[CBK050277T]", "% of control remaining": 92.7316}, {"smiles": "Cc1ccc(OCc2occc2C(=O)N2CCCn3cncc3C2)cc1", "note": "[CBK306618]", "% of control remaining": 74.7757}, {"smiles": "COC(=O)c1c(NC(=O)CC2SCC(C(=O)OC)NC2=O)sc2c1CCCC2", "note": "(centres unmarked) [CBK263834]", "% of control remaining": 93.2695}, {"smiles": "COC(=O)C1=COC(C)C2CN3CCC4(NC(=O)c5c4ccc(OC)c5OC)C3CC12", "note": "(centres unmarked) [CBK003303]", "% of control remaining": 97.6781}, {"smiles": "COCCOCC(=O)N1CCC2(C/C=C/C[C@H]3COCC[C@H]3NC(=O)CNC2=O)CC1", "note": "[CBK292170]", "% of control remaining": 104.119}, {"smiles": "CC(=O)Nc1ccc2c(CSc3nnc(-c4ccco4)n3C)cc(=O)oc2c1", "note": "[CBK297534]", "% of control remaining": 105.158}, {"smiles": "Cc1ccc(S(=O)(=O)NC2(C(F)(F)F)NC(=O)N(c3ccc(F)c(Cl)c3)C2=O)cc1", "note": "(centres unmarked) [CBK267473]", "% of control remaining": 98.6134}, {"smiles": "Cc1ccc2c(c1)OC1(CCN(C(=O)c3c(-c4ccccc4)nc4ccccn34)CC1)CC2=O", "note": "[CBK167871]", "% of control remaining": 93.582}, {"smiles": "CCCCC1CCC(C(=O)Nc2cc(C)c3c(=O)oc4ccccc4c3n2)CC1", "note": "(centres unmarked) [CBK291136]", "% of control remaining": 81.2406}, {"smiles": "CCOC(=O)CCCNC(=O)N1CCCC(C(=O)N(CC)CC)C1", "note": "(centres unmarked) [CBK156158]", "% of control remaining": 100.002}, {"smiles": "O=c1[nH]c2ccccc2nc1-c1cc(Br)ccc1NCc1ccccc1", "note": "[CBK088071]", "% of control remaining": 102.04}, {"smiles": "CN1CC(C(=O)N(C)Cc2nc(-c3ccccc3)no2)NC1=O", "note": "(centres unmarked) [CBK306727]", "% of control remaining": 49.1289}, {"smiles": "COc1cc2c(cc1OC)CN(C(=O)Cn1cc(C)c(=O)[nH]c1=O)CC2", "note": "[CBK122745]", "% of control remaining": 100.995}, {"smiles": "Clc1ccc(-c2c[nH]cn2)cc1", "note": "[CBK027542]", "% of control remaining": 93.6318}, {"smiles": "COc1cc([C@@H]2c3cc4c(cc3[C@H](O)[C@H]2C(=O)Nc2ccccc2)OCO4)cc(OC)c1OC", "note": "[CBK200106]", "% of control remaining": 73.3494}, {"smiles": "Cc1cc2nc(SCc3nc4ccccc4[nH]3)[nH]c2cc1C", "note": "[CBK264233]", "% of control remaining": 107.069}, {"smiles": "CC(=O)Oc1ccccc1C(=O)Oc1ccc2c(c1)c(C(C)=O)c(C)n2-c1ccccc1", "note": "[CBK263175]", "% of control remaining": 61.6074}, {"smiles": "Nc1cc(=O)[nH]c(SCC(=O)N2CCc3ccccc32)n1", "note": "[CBK307424]", "% of control remaining": 101.879}, {"smiles": "Cc1cc(COc2nccnc2OC2CCN(CC(=O)Nc3c(C)cccc3C)CC2)no1", "note": "[CBK082958T]", "% of control remaining": 75.6028}]}]}
